Results reported in article PMC10789758.
These are yes or no findings as the source states them, for the method shown. For some of these results: Binding seen in cells or lysates may run through a third protein. Some results given as binding are weak or reduced against the parent protein; the word gives no strength. For some of these results: Tags and fused reporters may be left off the sequences shown.

Chains of the proteins cited; added tags and fusions are not shown. Lines headed by an entry give the natural chain unless they say otherwise; changes in a name come on top.
UniProt P06239: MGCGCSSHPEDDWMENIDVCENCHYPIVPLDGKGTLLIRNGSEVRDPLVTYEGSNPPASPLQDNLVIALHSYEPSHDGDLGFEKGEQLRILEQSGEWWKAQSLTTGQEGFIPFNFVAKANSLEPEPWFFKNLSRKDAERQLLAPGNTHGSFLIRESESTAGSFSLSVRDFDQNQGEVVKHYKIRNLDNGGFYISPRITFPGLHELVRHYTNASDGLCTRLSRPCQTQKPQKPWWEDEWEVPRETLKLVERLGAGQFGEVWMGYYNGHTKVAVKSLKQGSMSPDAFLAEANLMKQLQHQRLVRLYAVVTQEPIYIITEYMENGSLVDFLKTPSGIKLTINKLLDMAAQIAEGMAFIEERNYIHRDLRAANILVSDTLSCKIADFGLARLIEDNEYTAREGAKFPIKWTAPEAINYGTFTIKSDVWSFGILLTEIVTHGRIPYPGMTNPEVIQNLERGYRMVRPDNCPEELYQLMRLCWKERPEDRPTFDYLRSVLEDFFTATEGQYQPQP
UniProt Q9Y297: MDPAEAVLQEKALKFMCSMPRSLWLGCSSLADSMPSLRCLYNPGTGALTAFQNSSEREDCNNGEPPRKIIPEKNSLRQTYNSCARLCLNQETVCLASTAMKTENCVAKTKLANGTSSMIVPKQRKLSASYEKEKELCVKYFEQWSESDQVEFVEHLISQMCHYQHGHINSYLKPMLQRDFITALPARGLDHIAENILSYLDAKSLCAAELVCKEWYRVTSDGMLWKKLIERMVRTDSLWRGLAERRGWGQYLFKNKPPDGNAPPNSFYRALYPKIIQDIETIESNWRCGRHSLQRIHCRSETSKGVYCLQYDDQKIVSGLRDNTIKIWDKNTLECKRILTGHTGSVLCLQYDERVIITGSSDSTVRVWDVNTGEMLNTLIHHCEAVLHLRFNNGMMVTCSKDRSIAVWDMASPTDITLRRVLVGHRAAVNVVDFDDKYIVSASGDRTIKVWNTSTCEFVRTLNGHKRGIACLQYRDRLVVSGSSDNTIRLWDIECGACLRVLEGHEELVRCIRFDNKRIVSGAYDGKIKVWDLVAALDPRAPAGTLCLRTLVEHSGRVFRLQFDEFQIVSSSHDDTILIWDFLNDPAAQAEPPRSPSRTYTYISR
UniProt Q13309: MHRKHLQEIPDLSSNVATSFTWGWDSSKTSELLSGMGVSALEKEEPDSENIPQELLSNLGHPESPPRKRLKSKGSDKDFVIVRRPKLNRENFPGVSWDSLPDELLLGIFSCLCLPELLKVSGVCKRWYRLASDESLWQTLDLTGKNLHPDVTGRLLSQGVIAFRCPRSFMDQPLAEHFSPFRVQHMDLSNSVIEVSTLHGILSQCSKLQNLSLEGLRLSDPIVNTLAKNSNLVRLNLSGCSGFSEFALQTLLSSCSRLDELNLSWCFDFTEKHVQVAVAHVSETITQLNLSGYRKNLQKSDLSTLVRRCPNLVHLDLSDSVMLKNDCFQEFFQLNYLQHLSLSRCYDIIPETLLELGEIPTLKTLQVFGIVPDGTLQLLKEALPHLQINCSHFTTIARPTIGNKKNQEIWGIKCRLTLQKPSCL
UniProt Q969H0: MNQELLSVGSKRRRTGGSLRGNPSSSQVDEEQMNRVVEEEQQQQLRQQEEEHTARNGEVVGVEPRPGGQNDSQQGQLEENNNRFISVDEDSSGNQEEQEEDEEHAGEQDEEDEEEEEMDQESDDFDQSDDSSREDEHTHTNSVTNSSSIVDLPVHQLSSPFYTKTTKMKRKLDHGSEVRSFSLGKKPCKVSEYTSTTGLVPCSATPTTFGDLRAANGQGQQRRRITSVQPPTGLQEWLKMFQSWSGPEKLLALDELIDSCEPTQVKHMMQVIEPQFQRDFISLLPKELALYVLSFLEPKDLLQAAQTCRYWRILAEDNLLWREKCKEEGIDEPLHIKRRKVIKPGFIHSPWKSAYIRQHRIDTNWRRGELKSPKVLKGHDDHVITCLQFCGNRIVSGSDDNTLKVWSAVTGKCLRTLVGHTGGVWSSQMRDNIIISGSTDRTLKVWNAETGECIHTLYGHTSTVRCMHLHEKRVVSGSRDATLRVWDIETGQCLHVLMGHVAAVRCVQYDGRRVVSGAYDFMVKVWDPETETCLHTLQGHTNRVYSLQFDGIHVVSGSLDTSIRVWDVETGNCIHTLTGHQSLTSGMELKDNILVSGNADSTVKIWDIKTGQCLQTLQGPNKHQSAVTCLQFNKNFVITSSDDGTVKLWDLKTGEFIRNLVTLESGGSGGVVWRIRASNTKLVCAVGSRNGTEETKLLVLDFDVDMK
UniProt P06240: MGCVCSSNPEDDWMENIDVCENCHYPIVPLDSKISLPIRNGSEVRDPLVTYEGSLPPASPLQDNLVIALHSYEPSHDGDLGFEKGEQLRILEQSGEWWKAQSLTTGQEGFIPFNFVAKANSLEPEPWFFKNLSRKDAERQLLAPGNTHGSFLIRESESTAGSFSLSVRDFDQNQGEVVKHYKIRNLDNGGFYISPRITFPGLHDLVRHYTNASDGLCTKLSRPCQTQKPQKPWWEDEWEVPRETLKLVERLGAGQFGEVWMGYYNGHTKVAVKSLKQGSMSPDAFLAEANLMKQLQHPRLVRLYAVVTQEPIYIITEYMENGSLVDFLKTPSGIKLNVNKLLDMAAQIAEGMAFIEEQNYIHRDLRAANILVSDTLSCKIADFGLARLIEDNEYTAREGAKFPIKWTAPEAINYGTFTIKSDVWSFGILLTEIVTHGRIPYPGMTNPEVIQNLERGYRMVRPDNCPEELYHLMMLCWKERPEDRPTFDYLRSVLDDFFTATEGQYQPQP
UniProt Q8IWV8: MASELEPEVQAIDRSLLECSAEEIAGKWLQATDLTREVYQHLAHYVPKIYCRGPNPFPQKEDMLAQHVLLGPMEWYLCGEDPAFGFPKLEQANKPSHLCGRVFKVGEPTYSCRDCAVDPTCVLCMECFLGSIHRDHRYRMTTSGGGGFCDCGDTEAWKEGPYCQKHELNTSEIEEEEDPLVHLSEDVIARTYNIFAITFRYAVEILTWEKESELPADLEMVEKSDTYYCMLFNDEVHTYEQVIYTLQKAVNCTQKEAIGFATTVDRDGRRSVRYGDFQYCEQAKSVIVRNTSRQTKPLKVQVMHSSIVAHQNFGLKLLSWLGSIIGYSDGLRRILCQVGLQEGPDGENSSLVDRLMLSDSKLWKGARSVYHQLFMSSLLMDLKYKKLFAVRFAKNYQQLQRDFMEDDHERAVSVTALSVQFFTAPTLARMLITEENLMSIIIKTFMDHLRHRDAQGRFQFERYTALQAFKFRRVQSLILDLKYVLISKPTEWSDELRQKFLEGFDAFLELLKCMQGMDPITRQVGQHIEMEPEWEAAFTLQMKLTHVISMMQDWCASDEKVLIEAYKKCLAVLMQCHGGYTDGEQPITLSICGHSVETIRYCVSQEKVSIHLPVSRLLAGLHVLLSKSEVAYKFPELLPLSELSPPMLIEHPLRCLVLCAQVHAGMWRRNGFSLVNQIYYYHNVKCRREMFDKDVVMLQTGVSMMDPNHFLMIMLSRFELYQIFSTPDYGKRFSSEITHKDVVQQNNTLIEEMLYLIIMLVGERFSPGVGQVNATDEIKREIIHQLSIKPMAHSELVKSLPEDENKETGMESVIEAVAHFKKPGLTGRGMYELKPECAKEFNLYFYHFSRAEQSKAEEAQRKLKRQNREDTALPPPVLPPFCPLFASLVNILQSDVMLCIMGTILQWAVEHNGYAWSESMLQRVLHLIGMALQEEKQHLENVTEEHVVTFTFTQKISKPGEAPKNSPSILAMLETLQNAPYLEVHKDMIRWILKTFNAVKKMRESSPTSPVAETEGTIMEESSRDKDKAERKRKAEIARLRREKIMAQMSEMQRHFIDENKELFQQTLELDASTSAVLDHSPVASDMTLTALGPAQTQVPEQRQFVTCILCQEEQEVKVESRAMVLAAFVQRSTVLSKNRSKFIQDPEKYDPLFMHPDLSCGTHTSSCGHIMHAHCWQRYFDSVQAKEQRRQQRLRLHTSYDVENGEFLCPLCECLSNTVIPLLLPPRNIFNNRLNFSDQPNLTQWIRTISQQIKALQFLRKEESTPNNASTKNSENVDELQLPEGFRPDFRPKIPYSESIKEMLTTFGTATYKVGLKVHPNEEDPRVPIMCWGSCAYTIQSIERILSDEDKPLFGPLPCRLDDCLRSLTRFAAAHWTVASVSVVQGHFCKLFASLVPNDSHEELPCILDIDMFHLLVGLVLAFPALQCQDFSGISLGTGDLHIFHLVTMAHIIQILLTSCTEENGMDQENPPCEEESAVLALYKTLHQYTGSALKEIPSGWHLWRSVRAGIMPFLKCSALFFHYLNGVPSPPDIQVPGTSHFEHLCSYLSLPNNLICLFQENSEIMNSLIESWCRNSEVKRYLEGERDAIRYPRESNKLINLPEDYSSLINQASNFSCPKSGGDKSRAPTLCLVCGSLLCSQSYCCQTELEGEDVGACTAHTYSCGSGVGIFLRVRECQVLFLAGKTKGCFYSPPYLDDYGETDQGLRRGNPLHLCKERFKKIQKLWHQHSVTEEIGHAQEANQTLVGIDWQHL
UniProt Q6WKZ8: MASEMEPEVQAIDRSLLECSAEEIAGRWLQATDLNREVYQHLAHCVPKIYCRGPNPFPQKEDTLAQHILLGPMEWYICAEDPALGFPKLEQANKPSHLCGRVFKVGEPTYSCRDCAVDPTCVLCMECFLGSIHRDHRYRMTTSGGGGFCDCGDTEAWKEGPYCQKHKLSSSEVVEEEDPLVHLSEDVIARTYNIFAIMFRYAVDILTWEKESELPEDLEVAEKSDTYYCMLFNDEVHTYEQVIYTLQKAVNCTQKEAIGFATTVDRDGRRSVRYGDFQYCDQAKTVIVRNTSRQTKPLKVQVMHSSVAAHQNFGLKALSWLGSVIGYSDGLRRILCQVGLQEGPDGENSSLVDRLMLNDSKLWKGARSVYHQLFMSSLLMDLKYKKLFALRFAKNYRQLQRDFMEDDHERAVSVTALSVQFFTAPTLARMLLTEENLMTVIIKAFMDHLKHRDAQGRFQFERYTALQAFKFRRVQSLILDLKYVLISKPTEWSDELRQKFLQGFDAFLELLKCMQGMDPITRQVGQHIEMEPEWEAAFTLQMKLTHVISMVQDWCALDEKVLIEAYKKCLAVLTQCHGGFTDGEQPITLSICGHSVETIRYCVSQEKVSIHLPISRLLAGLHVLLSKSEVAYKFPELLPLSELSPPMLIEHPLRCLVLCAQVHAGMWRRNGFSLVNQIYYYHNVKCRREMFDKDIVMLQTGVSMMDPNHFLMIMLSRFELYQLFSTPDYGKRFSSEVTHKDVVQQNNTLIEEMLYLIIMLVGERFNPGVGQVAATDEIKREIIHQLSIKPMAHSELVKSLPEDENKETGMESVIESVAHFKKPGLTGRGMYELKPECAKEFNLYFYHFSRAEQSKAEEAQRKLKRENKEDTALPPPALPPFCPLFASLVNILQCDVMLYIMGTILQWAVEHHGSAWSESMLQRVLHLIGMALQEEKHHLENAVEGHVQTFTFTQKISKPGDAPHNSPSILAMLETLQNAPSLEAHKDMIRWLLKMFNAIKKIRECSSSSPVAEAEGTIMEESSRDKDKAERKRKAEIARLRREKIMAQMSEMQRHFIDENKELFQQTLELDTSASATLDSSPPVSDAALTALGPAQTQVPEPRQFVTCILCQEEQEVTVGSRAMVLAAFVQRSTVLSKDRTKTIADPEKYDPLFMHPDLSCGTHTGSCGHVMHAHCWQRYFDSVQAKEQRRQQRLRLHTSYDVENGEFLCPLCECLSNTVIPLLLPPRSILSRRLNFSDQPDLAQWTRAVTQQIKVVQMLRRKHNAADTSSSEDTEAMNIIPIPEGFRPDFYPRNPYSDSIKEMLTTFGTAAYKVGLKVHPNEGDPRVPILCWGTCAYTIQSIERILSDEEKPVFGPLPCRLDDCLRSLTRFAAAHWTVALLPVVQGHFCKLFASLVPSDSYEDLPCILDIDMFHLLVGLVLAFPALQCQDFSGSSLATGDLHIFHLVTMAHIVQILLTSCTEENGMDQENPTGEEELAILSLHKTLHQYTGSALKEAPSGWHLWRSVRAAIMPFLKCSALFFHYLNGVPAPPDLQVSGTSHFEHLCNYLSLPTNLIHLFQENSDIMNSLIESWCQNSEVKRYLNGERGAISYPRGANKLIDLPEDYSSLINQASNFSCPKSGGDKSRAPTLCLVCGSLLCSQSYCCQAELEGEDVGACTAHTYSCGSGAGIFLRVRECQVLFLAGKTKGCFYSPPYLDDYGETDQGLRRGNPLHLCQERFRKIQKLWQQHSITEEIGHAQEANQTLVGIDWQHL

Legend:
[1] = molecular target: endogenous Lck (human peripheral blood T cells) (human (endogenous in peripheral blood T cells)) (UniProt P06239); experiment: proximity ligation; in situ PLA for endogenous UBR2 and Lck in peripheral blood T cells of human SLE patients; cold methanol fixation, 0.1% Triton X-100
[2] = molecular target: endogenous Lck (human peripheral blood T cells) (human (endogenous in peripheral blood T cells)) (UniProt P06239); experiment: proximity ligation; in situ PLA for endogenous UBR2 and Lck in peripheral blood T cells of healthy controls; cold methanol fixation, 0.1% Triton X-100
[3] = molecular target: Lck overexpressed in Jurkat T cells (human) (UniProt P06239); experiment: co-IP; immunoprecipitation of lysates from Lck-overexpressing Jurkat T cells, anti-CD3 time course (Supplementary Fig. 6c)
GST-DUSP22 = molecular target: T1, GST-DUSP22 (UniProt Q9NRW4); experiment: pull-down; in vitro binding: purified Flag-UBR2 incubated with purified GST-DUSP22; precipitated with anti-Flag agarose beads or glutathione-sepharose at 4 °C for 2 h; immunoblot; both purified
T1 sequence: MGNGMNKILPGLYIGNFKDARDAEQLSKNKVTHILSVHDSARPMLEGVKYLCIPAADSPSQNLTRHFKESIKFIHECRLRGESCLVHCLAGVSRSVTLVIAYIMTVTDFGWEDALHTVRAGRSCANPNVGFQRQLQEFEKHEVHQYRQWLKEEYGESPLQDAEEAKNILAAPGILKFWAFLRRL

Myc-DUSP22 (C88S) = molecular target: T2, Myc-DUSP22 (C88S) (UniProt Q9NRW4); experiment: co-IP; HEK293T cells co-transfected; RIPA lysates, 1 mg, anti-Flag or anti-Myc agarose beads, 4 °C 1-2 h, washed three times; immunoblot (reciprocal for UBR2 and DUSP22)
T2 sequence: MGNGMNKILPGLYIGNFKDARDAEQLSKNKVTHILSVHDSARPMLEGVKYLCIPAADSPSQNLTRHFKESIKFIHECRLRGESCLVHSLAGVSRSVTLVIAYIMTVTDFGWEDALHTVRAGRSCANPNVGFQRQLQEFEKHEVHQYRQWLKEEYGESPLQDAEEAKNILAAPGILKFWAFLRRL

Myc-βTrCP [4] = molecular target: Myc-βTrCP (UniProt Q9Y297); experiment: as above
Myc-DUSP22 [5] = molecular target: T3, Myc-DUSP22 (UniProt Q9NRW4); experiment: as above
T3 sequence: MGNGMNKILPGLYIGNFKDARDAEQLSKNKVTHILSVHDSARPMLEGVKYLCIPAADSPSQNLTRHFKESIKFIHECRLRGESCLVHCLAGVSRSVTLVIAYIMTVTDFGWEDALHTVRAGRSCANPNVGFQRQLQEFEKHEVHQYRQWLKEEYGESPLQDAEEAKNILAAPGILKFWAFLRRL

Myc-SKP2 = Myc-SKP2 (UniProt Q13309); experiment: proximity ligation; in situ PLA in co-transfected HEK293T cells, anti-Flag and anti-Myc antibodies, signals < 40 nm; with or without MG132, GFP-DUSP22 or GFP-DUSP22 (C88S) co-expressed as told
Myc-βTrCP [6] = molecular target: Myc-βTrCP (UniProt Q9Y297); experiment: as above
Myc-FBXW7 = Myc-FBXW7 (UniProt Q969H0); experiment: as above
Myc-DUSP22 [7] = molecular target: T3, Myc-DUSP22; experiment: as above
[8] = molecular target: T4, Myc-DUSP22 (in Jurkat T cells) (UniProt Q9NRW4); experiment: proximity ligation; in situ PLA in MG132-treated Jurkat T cells with Flag-UBR2 and Myc-DUSP22; signals < 40 nm; confocal microscopy
T4 sequence: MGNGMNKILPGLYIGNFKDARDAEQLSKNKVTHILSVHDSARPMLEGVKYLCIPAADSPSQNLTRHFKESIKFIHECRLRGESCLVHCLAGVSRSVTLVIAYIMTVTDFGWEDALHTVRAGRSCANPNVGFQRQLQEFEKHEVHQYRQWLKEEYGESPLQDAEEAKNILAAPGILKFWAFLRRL

[9] = molecular target: endogenous Lck (murine primary T cells) (mouse (endogenous in murine primary T cells)) (UniProt P06240); experiment: co-IP; endogenous proteins in lysates of murine primary T cells stimulated with anti-CD3 for 0, 5, 10 min; antibodies and protein A/G-agarose beads, 4 °C 2 h
Flag-UBR2 = Flag-UBR2 (UniProt Q8IWV8); experiment: proximity ligation; in situ PLA in co-transfected HEK293T cells, anti-Flag and anti-Myc antibodies, signals < 40 nm; with or without MG132, GFP-DUSP22 or GFP-DUSP22 (C88S) co-expressed as told

Q: With “endogenous UBR2 (human peripheral blood T cells) (from UniProt Q8IWV8 1-1755)” as the molecule, how does the binding [1] read?
A: binds

Q: What about the binding [2] of the same molecule?
A: no binding (condition: T cells from healthy controls)

Q: With “UBR2 in the lysate of Lck-overexpressing Jurkat T cells (from UniProt Q8IWV8 1-1755)” as the molecule, how does the binding [3] read?
A: binds

Q: Flag-UBR2 (from UniProt Q8IWV8 1-1755) was tested. Which binding (GST-DUSP22) did it give?
A: binds

Q: What about the binding (Myc-DUSP22 (C88S)) of the same molecule?
A: binds

Q: What about the binding (Myc-βTrCP [4]) of the same molecule?
A: binds

Q: What about the binding (Myc-DUSP22 [5]) of the same molecule?
A: binds

Q: What about the binding (Myc-SKP2) of the same molecule?
A: no binding

Q: What about the binding (Myc-βTrCP [6]) of the same molecule?
A: binds

Q: And the binding (Myc-FBXW7)?
A: no binding

Q: And the binding (Myc-DUSP22 [7])?
A: binds

Q: With “Flag-UBR2 (S1694A/Y1697F) (from UniProt Q8IWV8 1-1755)” as the molecule, how does the binding (Myc-βTrCP [6]) read?
A: binds

Q: For “Flag-UBR2 (in Jurkat T cells) (from UniProt Q8IWV8 1-1755)”, which binding [8] is on record?
A: binds

Q: “endogenous UBR2 (murine primary T cells) (from UniProt Q6WKZ8 1-1755)” was tested. Which binding [9] did it give?
A: binds

B1: DUSP22 in the lysate of Lck-overexpressing Jurkat T cells (protein, UniProt Q9NRW4 1-184)
chain: MGNGMNKILPGLYIGNFKDARDAEQLSKNKVTHILSVHDSARPMLEGVKYLCIPAADSPSQNLTRHFKESIKFIHECRLRGESCLVHCLAGVSRSVTLVIAYIMTVTDFGWEDALHTVRAGRSCANPNVGFQRQLQEFEKHEVHQYRQWLKEEYGESPLQDAEEAKNILAAPGILKFWAFLRRL
Q: For B1, which binding [3] is on record?
A: binds

B2: GFP-DUSP22 (C88S) (protein, UniProt Q9NRW4 1-184)
chain: MGNGMNKILPGLYIGNFKDARDAEQLSKNKVTHILSVHDSARPMLEGVKYLCIPAADSPSQNLTRHFKESIKFIHECRLRGESCLVHSLAGVSRSVTLVIAYIMTVTDFGWEDALHTVRAGRSCANPNVGFQRQLQEFEKHEVHQYRQWLKEEYGESPLQDAEEAKNILAAPGILKFWAFLRRL
Q: For B2, which binding (Flag-UBR2) is on record?
A: binds
